In the RNAGym collection of RNA variant scans (doi:10.7554/elife.90254):
The source gives no read counts; variants with many changes may rest on few reads.

B1: OR4K15 (parent)
chain: GUUAACGGUCAUAGGCCAUGGAAACUAGGAGCACCAUUUCGCUGCCAGUGAAGAAAUGAACAAAGAAAAUCUGGGCCAGGCAGGCAUCAAAAGAAAUAGUCUUGCGCUCAACCAGAAAGUCUGUAAUCAUUUUAAGGGUA

Variants of: B1
Test: self-cleavage, relative activity (ratio to wild type); higher = more cleavage; in vitro, sequencing; the parent is a self-cleaving ribozyme

| Variant | self-cleavage |
| --- | --- |
| GUUAACGGUCAUAGGCCAUGGCAACUAGGAGCACCAUUUCGCUGCCAGCGAAGAAAUGAACAAAGAAAAUCUGGGCCAGGCAGGCAUCAAAAGAAAUAGUCUUGCGCUCGACCAGAAAGUCUGUAAUCAUUUUAAGGGUA [A22C U49C A110G] | 0.17 |
| GUUAACGGUCAUAGGCCAUGCAAACUAGGAGCACCAUUUCGCUGCCAGCGAAGAAAUGAACAAAGAAAAUCUGGGCCAGGCAGGCAUCAAAAGAAAUAGUCUUGCGCUCAACCAGAAAGUCUGUAAUCGUUUUGAGGGUA [G21C U49C A129G A134G] | 0.45 |
| GUUAACGGUCAUAGGCCAUGUAAACUAGGAGCACCAUUUCGCUGCCAGUGAAGAAAUGAACAAAGAAAAUCUGGGCCAGGCAGGCAUCAAAAGAGAUAGUCUUGCGCUCAACCUGAAAGUCUGUAAUCAUUUUAAGGGUA [G21U A95G A114U] | 0.13 |
| GUUAACGGUCAUAGGCCAUGGGGACUAGGAGCACCAUUUCGCUGCCAGUGAAGAAAUGAACAAAGAGAAUCUGGGCCAGGCAGGCAUCAAAAGAAAUAGUCCUGCGCUCAACCAGAAAGUCUGUAAUCAUUUUAAGGGUA [A22G A23G A67G U102C] | 1 |
| GUUAACGGUCAUAGGCCAUGAAAACUAGGAGCACCAUUUCGCUGCCAGUGAAGAAAUGAACAAAGAAAAUCUGGGCCAGGCAGGCGUCAAAAGAAAUAGUCUUGCGCUCAACCAGAAAGUCCGUAAUCAUUUUAAGGGUA [G21A A86G U122C] | 0.1 |
| GUUAACGGUCAUAGGCCAUGGGGACUAGGAGCACCAUUUCGCUGCCAGCGAAGAAAUGAACAAAGAAAAUCUGGGCCAGGCAGGCAUCAAAAGAAAUAGUCUUGCGCUCAACCAGAAAGUCUGUAAUCAUCUUAAGGGUA [A22G A23G U49C U131C] | 0.29 |
| GUUAACGGUCAUAGGCCAUGUAAACUAGGAGCACCAUUUCGCUGCCAGUGAAGAAAUGAACAAAGAAAAUCUGGGCCAGGCAGGCAUCAAAAGAAAUAGUCUUGCGCUCAACCAGAAAGUCUGUAAUCUUUUCAAGGGUA [G21U A129U U133C] | 0.65 |
| GUUAACGGUCAUAGGCCAUGGGGACUAGGAGCACCAUUUCGCAGCCAGUGAAGAAAUGAACAAAGAAAAUCUGGGCCAGGCAGGCAUCAAAAGAAAUAGUCCUGCGCUCAACCAGAAAGUCUGUAAUCAUUUUAAGGGUA [A22G A23G U43A U102C] | 1.72 |
| GUUAACGGUCAUAGGCCAUUGAAACUAGGAGCACCAUUUCGCUGCCAGUGAAGAAAUGAACAAAGAAAAUCUGGGCCAGGCAGGCAUCAGAAGAAAUAGUCUUGCGCUCAACCAGAAAGUCUGUAACCAUUAUAAGCGUA [G20U A90G U127C U132A G137C] | 0.45 |
| GUUAACGGUCAUAGGCCAUGAAAACUAGGAGCACCAUUUCGCUGCCAGUGAAGAAGUGAACAAAGAAAAUCUGGGCCAGGCAGGCAUCAAAAGGAAUAGUCUUGCGCUCAACCAGAAAGUCUGUAAUCAUUUUAAGGGUA [G21A A56G A94G] | 1.42 |
| GUUAACGGUCAUAGGCCAUUGAAACUAGGAGCACCAUUUCGCCGCCAGUGAAGAAAUGAACAAAGAAAAUCUGGGCCAGCCAGGCAUCAAAAGAAAUAGUCUUGCGCUCAACCAGAAAGUCUGUAAUCAUUUUAAGGGUA [G20U U43C G80C] | 0.07 |
| GUUAACGGUCAUAGGCCAUUGAAACUAGGAGCACCAUUUCGCUGCCAGUGAAGAAAUGAACAAAGAAAAUCUGGGCCAGGCAGGCAUCAAAAGAAAUAGUCUUGCGCUCAACCAGGGAGUCUGUAAUCAUUAUAAGGGUA [G20U A116G A117G U132A] | 0.35 |
| GUUAACGGUCAUAGGCCAUGAAGACUAGGAGCACCAUUUCGCUGCCAGUGAGGAAAUGAACAAAGAAAAUCUGGGCCAGGCAGGCAUCAAAAGAAAUAGUCUUGCGCUCAACCAGAAAGUCUGUAAUCAUUUUAAGGGUA [G21A A23G A52G] | 0.62 |
| GUUAACGGUCAUAGGCCAUGAAAACUAGGAGCACCAUCUCGCUGCCAGUGAAGAAAUGGACAGAGAAAAUCUGGGCCAGGCAGGCAUCAAAAGGAAUAGUCUUGCGCUCAACCAGAAAGUCUGUAAUCAUUUUAAGGGUA [G21A U38C A59G A63G A94G] | 1.56 |
| GUUAACGGUCAUAGGCCAUGAGAACUAGGAGCACCAUUUCGCCGCCAGUGAAGAAAUGAACAAAGAAAAUCUGGGCCAGGCAGGCAUCAAAAGAAAUAGUCUUGCGCUCAACCAUAAAGUCUGUAAUCAUUUUAAGGGUA [G21A A22G U43C G115U] | 0.24 |
| GUUAACGGUCAUAGGCCAUGAAAACUAGGAGCACCAUCUCGCUGCUAGUGAAGAAAUGAACAAAGAAAAUCUGGGCCAGGCAGGCAUCGAAAGAAAUAGUCUUGCGCUCAACCAGAAAGUCUGUAAUCAUAUUAAGGGUA [G21A U38C C46U A89G U131A] | 1.74 |
| GUUAACGGUCAUAGGCCAUGGGUACUAGGAGCACCAUUUCGCUGCCAGUGAAGAAAUGAACAAAGAAAAUCUGGGCCUGGCAGGCAUCAGAAGAAGUAGUCUUGCGCACAACCAGAAAGUCUGUAAUCAUUUUAAGGGUA [A22G A23U A78U A90G A96G U108A] | 0.02 |
| GUUAACGGUCAUAGGCCAUGAGAACUAGGAGCACCAUUUCGCUGCCAGUGAAGAAAUGAACAAAGAAAAUCUGGGCCAGGCAGGCAUCAAAAGAAGUAGUCUUGCGCUCAACCAGAAAGUCUGUAAUCAUUUUAAGGGUA [G21A A22G A96G] | 2.41 |
| GUUAACGGUCAUAGGCCAUGAAAACUAGGAGCACCAUUUCGCUGCCAGUGAAGAAAUGGACAAAGAAAAUCUGGGCCAGGCGGGCAUCAAAAGGAAUAGUCUUGCGCUCAACCAGAAAGUCUGUAAUCAUCUUAAGGGUA [G21A A59G A82G A94G U131C] | 0.54 |
| GUUAACGGUCAUAGGCCAUGGGGACUAGGAGCACCAUUUCGCUGCCAGUGAAGAAAUGAACAAAGAAGAUCUGGGCCAGGCAGGCAUCAGAAGAAAUAGUCUUGCGCUCAACCAGAAAGUCUGUAAUCAUUUUAAGGGUA [A22G A23G A68G A90G] | 1.35 |
| GUUAACGGUCAUAGGCCAUGUGAACUAGGGGCGCCAUUUCGCUGCCAGUGAAGAAAUGAACAAAGGAAAUCUGGGCCAGGCAGGCAUCAAAAGAAAUAGUCUUGCGCUCAACCAGAAAGUCUGUAAUCAUUUCAAGGGUA [G21U A22G A30G A33G A66G U133C] | 0.63 |

| Variant | self-cleavage |
| --- | --- |
| GUUAACGGUCAUAGGCCAUGGGGACUAGGAGCACCAUUUCGCUGCCAGUGAAGGAAUGAACAAAGAAAAUCUGGGCCUGGCAGGCAUCAAAAGAAAUAGUCUUGCGCUCAACCAGAAAGUCUGUAAUCAUUUUAAGGGUA [A22G A23G A54G A78U] | 0.32 |
| GUUAACGGUCAUAGGCCAUUGAAACUAGGAGCACCAUUUCGCUGCCAGUGAAGAAAUGAACAAAGAAAAUCUGGGCCAGGCAGGCAUCAGAAGAAAUGGUCUUGCGCUCAACCAGAAAGUCUGUAAUCAUUUUAAGGGUA [G20U A90G A98G] | 0.16 |
| GUUAACGGUCAUAGGCCAUGAAAACUAGGAGCACCAUUUCGCUGCCAGUGAAGAAAUGAACAAAGAAAAUCUGGGCCAGGCAGGCUUCAAAAGAAGUAGUCUUGCGCUCAACCAGAAAGUCUGUAAUCAUUUUAAGGGUA [G21A A86U A96G] | 2.34 |
| GUUAACGGUCAUAGGCCAUGGGGACUAGGAGCACCAUUCCGCUGCCAGUGAAGAAAUGAACAAAGAAAAUCUGGGCCAGGCAGGCAUCAAAAGAAAUAGUCUUGCGCUCAACCAGAAAGUCUGUAAUCAUUUUAAGGGUA [A22G A23G U39C] | 0.79 |
| GUUAACGGUCAUAGGCCAUUGAAACUAGGAGCACCAUUUCGCUGCCAGUGAAGAACUGAACAAAGAAAAUCUGGGCCAGGCAGGCAUCAAAAGAAGUAGUCUUGCGCUCAACCAGGAAGUCUGUAAUCAUGUUAAGGGUA [G20U A56C A96G A116G U131G] | 0.23 |
| GUUAACGGUCAUAGGCCAUGAAAACUAGGAGCACCAUUUCGCUGCCAGUGUAGAAAUGAACAAAGAAAAUCUGGGCCAGGCAGGCAUCAAAAGAAAUAGUCUUGCGCUCAGCCAGAAAGUCUGUAAUCAUUUUAAGGGUA [G21A A51U A111G] | 0 |
| GUUAACGGUCAUAGGCCAUGGCAACUAGGAGCACCAUUUCGCUGCCAGUGAAGAAAUGAACAAAGAAAAUCUGGGCCUGGCAGGCAUCAAAAGAAAUAGUCUUGCGCUCAACCAGAAAGUCUGUGAUCAUUUUAAGGGUA [A22C A78U A125G] | 0.19 |
| GUUAACGGUCAUAGGCCAUGAAAACUAGGAGCACCAUUUCGCUGCCAGUGAAGAAAUGAGCAAAGAAAAUCUGGGCCAGGCAGGCAUCAGAGGAAAUAGUCUGGCGCUCAACCAGAAAGUCUGAAAUCAUCUUAAGGGUA [G21A A60G A90G A92G U103G U124A U131C] | 0 |
| GUUAACGGUCAUAGGCCAUGGGGACUAGGAGCACCAUUUCGCUGCCAGAGAAGAAAUGAACAAAGAAAAUCUGGGCCAGGCAGGCAUCAAAAGAAAUAGUCUUGCGCUCAACCAGAAAGUCUGUAAUCAUUUUAAGGGAG [A22G A23G U49A U139A A140G] | 0.37 |
| GUUAACGGUCAUAGGCCAUGAAAGCUAGGAGCACCAUUUCGCUGCCAGUGGAGAAAUGAACAAAGAAAAUCUGGGCCAGGCAGGCAUCAAAAGAAAUAGUCUUGCGCUCAACCAGAAAGUCUGUAAUCAUUUUAAGGGUA [G21A A24G A51G] | 0.95 |
| GUUAACGGUCAUAGGCCAUGUAAACUAGGAGCACCAUUUCGCUGCCAGUGAAGUAAUGAACAAAGAAAAUCUGGGCCAGGCAGGCAUCAAAAGAAAUAGUCUUGCGCUCAACCAGAAAGUCAGUAAUCAUUUUAAGGGUA [G21U A54U U122A] | 2.07 |
| GUUAACGGUCAUAGGCCAUGGGGACUAGGAGCACCAUUUCGCUACCAGUGAAGAAAUGAACAAAGAAAGUCUGGGCCAGGCAGGCAUCAAAAGAAAUAGUCUUGCGCUCAACCAGAAAGUCGGUAAUCAUUUUAAGGGUA [A22G A23G G44A A69G U122G] | 1.94 |
| GUUAACGGUCAUAGGCCAUGAAAACUAGGAGCACCAUUUCGCUGCCUGUGAAGAAAUGAACAAAGAAAAUCUGGGCCAGGCAGGCAUCAAAAGAAAUAGUCUUGCGCUCAACCAGGCAGUCUGUAAUCAUUUUGAGGGUA [G21A A47U A116G A117C A134G] | 0.03 |
| GUUAACGGUCAUAGGCCAUGGCAACUAGGAGCACCAUUUCGCUGCCAGUGAAGAAAUGAACAAAGAAAAUCUGGGCCAGGCAGGCAUCAGAAGAAAUAGUCUCGCGCUCAACCAGAAGGUCUGUAAUCAUUUUAAGGGUA [A22C A90G U103C A118G] | 0.06 |
| GUUAACGGUCAUAGGCCAUGGGGACUAGGAGCACCAUUUCGCUGCCAGUGGAGAAAUGAGCAAAGAAAAUCUGGGCCAGGCAGGCACCAAAAGAAAUAGUCCUGCGCUCAACCAGAUAGUCUGUAAUCAUUUUAAGGGUA [A22G A23G A51G A60G U87C U102C A117U] | 0.79 |
| GUUAACGGUCAUAGGCCAUGAAAACUAGGAGCACCAUCUCGCUGCCAGUGAAGAAAUGAACAAAGAAAAUCUGGGCCAGGCAGGCAUCAAAAGAAAUAGUCUUGCGCGCAACCAGAAAGUCUGUAAUCAUUUUAAGGGUA [G21A U38C U108G] | 0.01 |
| GUUAACGGUCAUAGGCCAUGGGGACUAGGAGUACCAUUUCGCUGCCAGUGAAGAAAUGAACAAAGAAAAUCUGGGCCAGGCAGGCAUCAAAAGAAAUAGUCUCGCGCUCAACCAGAAAGUCUGUAAUCAUUUUAAGGGUA [A22G A23G C32U U103C] | 0.84 |
| GUUAACGGUCAUAGGCCAUGGCAACUAGGAGCACCAUUUCGCCGCCAGUGAAGAAAUGAACAAAGAAAAUCUGGGCCAGGCAGGCAUCAGAAGAAAUAGUCUUGCGCUCAACCAGAAAGUCUGUCAUCAUUUUAAGGGUA [A22C U43C A90G A125C] | 0 |
| GUUAACGGUCAUAGGCCAUGAAAACUAGGAGCACCAUUCCGCUGCCAGUGAAGAAAUGAACAAAGAAAAUCUGGGCCAGGCAGGCAUCAAAAGAAAUAGUCCUGCGCUCAACCAGAAAGUCUGUAAUCAUUUUAAGGGUA [G21A U39C U102C] | 1.92 |
| GUUAACGGUCAUAGGCCAUGAAAGCUAGGAGCACCAUUUCGCUGCCAGUGAAGAAGUGAACAAGGAAAAUCUGGGCCAGGCAGGCAUCAAAAGAAAUGGUCUUGCGCUCAACCAGAAAGUCUGUAACCAUUUUAAGGGUA [G21A A24G A56G A64G A98G U127C] | 0.13 |
